Experimental data published in PubChem BioAssay (NCATS).
Inconclusive means that the source gave no clear call. Such entries were picked first, then a sample of the others. Potencies of inconclusive entries are left out as doubtful fits. Activity calls are given as the source filed them. Calls follow the shape of the dose curve; as a rule, active = well fitted cell-killing curve with a large enough effect; inconclusive = small, poorly fitted or top-dose-only effect; inactive = flat fitted curve, though single readings scatter.

Assay: Cellular viability qHTS for adrenocortical cancer (ACC) cell line SW-13 (AID 1963989); also: nearly all actives have a fitted effect of over 65% in size;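 as to activity (max response): cells grown in serum-free medium with ITS supplement; % is scaled to controls: 0 for no effect and ±100 for the full control effect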
Details: SW-13 ACC cells viability, CellTiter-Glo, 48 h; activity (max response): stronger effect = lower value
In short: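 48 h treatment, SW-13 in ITS/DMEM serum-free; doses up to 46 uM; readout CellTiter-Glo luminescence; curve fit four-parameter logistic.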
Potency is read from the fitted curve at half-maximal effect; tags tell the direction and shape of the fitted curve.

| SMILES | Potency | activity (max response) |
| --- | --- | --- |
| COC(=O)[C@H]1[C@@H](O)[C@@]2(O)c3c(OC)cc(O[C@@H]4O[C@@H]([C@@H](O)CO)CO[C@H]4OC)cc3O[C@@]2(c2ccc(OC)cc2)[C@@H]1c1ccccc1 | inconclusive [cytotoxic, single point] |  |
| Nc1cc(C(F)(F)F)ccc1S | inconclusive [cytotoxic, single point] |  |
| Cc1ccc(NS(=O)(=O)c2cccc(C#N)c2)c2[nH]cc(C#N)c12 | inconclusive [cytotoxic, partial curve] |  |
| O=C(NCc1ccccc1)[C@H](Cc1ccccc1)NC(=O)[C@H]1O[C@@H]1C(=O)NCCc1ccc(O)cc1 | inconclusive [cytotoxic, single point] |  |
| Oc1cccc(-c2c3nc(c(-c4cccc(O)c4)c4ccc([nH]4)c(-c4cccc(O)c4)c4nc(c(-c5cccc(O)c5)c5ccc2[nH]5)CC4)C=C3)c1 | active: 6.51 µM |  |
| NCCS |  | inactive: 16.9% |
| CC[C@@H](C)Nc1cc(C(=O)NC2CC3CCC(C2)N3c2ccc(C(=O)C3CC3)cn2)c(C)cc1C(N)=O (stereo partly specified) | active: 0.355 µM |  |

Assay: Cellular viability qHTS for adrenocortical cancer (ACC) cell line NCI-H295R (AID 1963990); also: nearly all actives have a fitted effect of over 60% in size;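 as to activity change, negative = viability loss: 0% = DMSO only wells and -100% = full killing with cytotoxic reference compound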
Details: CellTiter-Glo ATP luminescence, 48 h; activity change, negative = viability loss: at 46.1 µM (top of the series)
In short: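 Compound titrations (up to 46 uM final) are applied to NCI-H295R cultures for 48 h at 37C. Viable cell number is estimated by CellTiter-Glo signal, normalised to DMSO and doxorubicin controls.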

| SMILES | Potency |
| --- | --- |
| C=CC(=O)N[C@H]1CCOC[C@H]1Nc1ncc2cc(-c3c(Cl)c(OC)cc(OC)c3Cl)ccc2n1 | inconclusive [cytotoxic, single point] |
| CCN1CCN(Cc2ccc(NC(=O)c3ccc(C)c(NC(=O)c4cncc(-c5cccs5)c4)c3)cc2C(F)(F)F)CC1 | active: 2.51 µM |
| C=C1C(=C/C=C2\CCC[C@]3(C)[C@@H]([C@H](C)/C=C/[C@@H](O)C4CC4)CC[C@@H]23)C[C@@H](O)C[C@@H]1O | inconclusive [cytotoxic, partial curve, poor fit] |
| CCCCN(CCCC)CCCOC(=O)c1ccc(N)cc1 | inconclusive [cytotoxic, single point] |
| Cc1ncc(NC(=O)c2ccc(CN3CCN(C)CC3)c(C(F)(F)F)c2)cc1Nc1nccc(-c2cccnc2)n1 | inconclusive [cytotoxic, single point] |
| Cc1cc(O)c(-c2ccc([C@@H](C)CN(C)C)cc2)c2c1[nH]c(=O)c1sccc12 | active: 0.251 µM |
| COc1cc(C(=O)OCCCN2CCCN(CCCOC(=O)c3cc(OC)c(OC)c(OC)c3)CC2)cc(OC)c1OC | inconclusive [cytotoxic, partial curve, poor fit] |
| Cc1nc(-c2ccc(Cl)cc2)oc1COC(C)(C)C(=O)O | inactive |
| CN(C)CCCN1c2ccccc2Sc2ccc(C(F)(F)F)cc21 | inconclusive [cytotoxic, single point] |
| CC(C)n1cc(-c2ccc3c(c2)N(C)CC3)c2c(NS(=O)(=O)c3ccn(C)n3)ccnc21 | inactive |
| CN1C[C@@H]2c3ccccc3Oc3ccc(Cl)cc3[C@H]2C1 | inconclusive [cytotoxic, single point] |
| O=C1OC2(c3ccc(O)cc3Oc3cc(O)ccc32)c2ccccc21 | inconclusive [cytotoxic, single point] |
| Cc1ccc(NC(=O)c2ccc3c(c2)OCCO3)cc1NC(=O)c1ccc2nc(OCCN3CCCC3)ccc2c1 | inconclusive [cytotoxic, full curve, poor fit] |
| [2H]C([2H])(Nc1nc(-c2ccccc2C([2H])(C([2H])([2H])[2H])C([2H])([2H])[2H])ncc1C)c1ccc(-n2ccnn2)cc1 | inconclusive [cytotoxic, single point] |
| CCOC(=O)[C@H](CCc1ccccc1)N[C@@H](C)C(=O)N1Cc2ccccc2C[C@H]1C(=O)O | active: 16.4 µM |
| N#C/C(=C1/Nc2ccccc2S1)c1ccnc(OCc2ccc(CN3CCOCC3)cc2)n1 | inconclusive [cytotoxic, single point] |
| C[C@H]1C[C@H]2[C@@H]3CCC4=CC(=O)C=C[C@]4(C)[C@H]3C(=O)C[C@]2(C)[C@@]1(O)C(=O)CO | inconclusive [cytotoxic, partial curve] and inactive |
| O=C(/C=C\n1cnc(-c2cc(C(F)(F)F)cc(C(F)(F)F)c2)n1)N1CC(F)(F)C1 | inconclusive [cytotoxic, full curve] |
| CC1(C)CCC2(CC1)N[C@@H](C(=O)N[C@@H]1CC[C@@H](C(N)=O)OC1)[C@H](c1ccnc(Cl)c1F)[C@]21C(=O)Nc2cc(Cl)ccc21 | inconclusive [cytotoxic, partial curve, poor fit] |
